# Measurements taken from publication PMC12136788.
# This is one part of the list.
# B1: chr10:75239141:75239142:-_ENSG00000107758_ENST00000394829|hu_mus|FALSE|FALSE (ssRNA)
# RNA: GGGAGUUCUACAGUCCGACGAUCUACUUCUAUCAUGGUUUUCUCCCGCCGAAGUAUGGCAGCACCCUCAUUGAUAAUUCUUAGUGCAAUUUCUUCAUCCACCCGCCCUUCUUUUACCAAGUGGUUCUUCAGAACAUCAACCCUCAACAGAGGAUUGAGCAUCA
# B2: chr1:66463027:66463028:+_ENSMUSG00000015222_ENSMUST00000114013|mus_hu|FALSE|FALSE (ssRNA)
# RNA: GGGAGUUCUACAGUCCGACGAUCUUUUCUUUCAGGAGUGGAAAUUCUGCCUCUCCCGGUUUUAAAAGGCUUUUCUUUUCUAUGUUUCUCAAGAGAUGAUCUCCGAGCUUCCUUUUCAGCUUUCUCCUCUUUAGGAAUAGUUUCCAACAGAGGAUUGAGCAUCA
# B3: chr7:54825262:54825263:-_ENSG00000132432_ENST00000352861|hu_hu|hu_hu_hu_mus_False|28_58 (ssRNA)
# RNA: GGGAGUUCUACAGUCCGACGAUCCUGCCGGCUGGGCUCCACAAACUGCAUUACCUGAUCCAUGUUUGUUGGAUGGCACACCUAAAACGUAGAGACACGUAGCUCAGGGAGCUUGCUAGCCCAACGGAACCGGAAGCUGGCAACCAACAGAGGAUUGAGCAUCA
# B4: 35048147_35056347_353_5pUTR_ENSMUSG00000026878_ENSMUST00000028238|mouse|control|control (ssRNA)
# RNA: GGGAGUUCUACAGUCCGACGAUCAAUAUACUUAAAGAUGUAAGAGUAGUUGUACGGUGCAGUUGCCAUGGUGGCACUGGGGGGUUGCUGGUGGCUGGGCAGCUUUCCGGACGGGAGGGGGACGUCAGGACGAGGAAGCGGAGGCAACAGAGGAUUGAGCAUCA
# B5: chr16:94915998:94915999:+_ENSMUSG00000022897_ENSMUST00000023614|mus_hu|motif|central (ssRNA)
# RNA: GGGAGUUCUACAGUCCGACGAUCUUUUGAUAUUGCUAUACUCAAGAUGAUAUCCUUUUAUUCACUGUAAACCUUUAUGAACGGCCAAGUUCAAAAAAAUCAUCCACAGGCUUGACAGUUAAUUACAAAAUAAAUAUGGAUUUCCAACAGAGGAUUGAGCAUCA
# B6: chr13:37614821:37614822:-_ENSG00000102710_ENST00000475892|hu_mus|motif|central (ssRNA)
# RNA: GGGAGUUCUACAGUCCGACGAUCACUUUGGUAACCAGGAGACUUCAUAUUACUGGACUGCCUAUAGUCACGUAUUUCUGCGGUCACACAUCCACAAUGAAAAAUAUUAACCUGUGAUUUUUCAAGGAGAUCCACCAAAAUAGGCAACAGAGGAUUGAGCAUCA
# B7: chr19:14671312:14671313:-_ENSMUSG00000024642_ENSMUST00000052011|perfect_dup|FALSE|FALSE (ssRNA)
# RNA: GGGAGUUCUACAGUCCGACGAUCAGCCUGUAAAAACUGAAACUCUUCCUUAAUCCGAUCACAGGAUUCGGAAAUUGUAAAUUUAAAGGGUUGAGCAGGCUGAUGCGGUGCUGGGUGUCUGGUCUGCGGGUACAUCUUGCUCAGCAACAGAGGAUUGAGCAUCA
# B8: 131127965_131128085_1752_3pUTR_ENSMUSG00000048911_ENSMUST00000059372|mouse|control|control (ssRNA)
# RNA: GGGAGUUCUACAGUCCGACGAUCUGCUUUACACGGCGAAUUUACACUGUUCACAAAGCCUAUUGGAGGCAGUUAUCUCUAGAAAAGUUGGACAGAAAGAGCCAAAGAGCAGCAUGCAUUUUCCCUAUAAAAACCCCUUCAGUUCAACAGAGGAUUGAGCAUCA
# B9: chr6:41757443:41757444:+_ENSG00000214736_ENST00000398881|hu_mus|hu_hu_hu_mus_False|8_18 (ssRNA)
# RNA: GGGAGUUCUACAGUCCGACGAUCGAACCGUGCAGAGGCAACAUCUCAGCCGACACUGGGGGAUGGGGGGGCAGUGGGGGGGGGUUCAGGCAAGGAGAGGGAGUCAACUUCAGCUGCUCAAACUUCAGCUGCCAUCAGUCACAGCAACAGAGGAUUGAGCAUCA
# B10: 2906631_2906918_121_3pUTR_ENSG00000129757_ENST00000380725|human|control|control (ssRNA)
# RNA: GGGAGUUCUACAGUCCGACGAUCAGGCGCUGGUGCGCACUAGUACUGGGAAGGUCCCACGGGCGACAAGACGCUCCAUCGUGGAUGUGCUGGCUGUCCGGUGGUGGACUCUUCUGCGUCGGGUUCGCCUGUCUCGUCCGGACGCAACAGAGGAUUGAGCAUCA
# B11: chr12:39763582:39763583:-_ENSG00000139116_ENST00000544797|hu_mus|hu_hu_hu_mus_False|8_68 (ssRNA)
# RNA: GGGAGUUCUACAGUCCGACGAUCCUCUAGGAACUGGGCAUUCACUUUGAAUUCAGGAGGGGGCAGCCCAUUUUUAAUCGCUGAGGUCUUUUUCUCAUCAAUACUCUUGAACAGGUGUCUAACAGCACGAGAAAUAAUGCCCUGCAACAGAGGAUUGAGCAUCA
# B12: chr2:144966258:144966259:-_ENSG00000121964_ENST00000344850|hu_mus|motif|central (ssRNA)
# RNA: GGGAGUUCUACAGUCCGACGAUCUGUGCGUGCUCUCCAGUGCCAUUUCUUUGCAGGAAGAGUGUACAACACGCAGUCAUCGGAUUCUUCUCGGAGCAGCUCUACCAGCUGUCGAUGGGAGCCUCCAUAAAAUGCCUCGAUGAUCAACAGAGGAUUGAGCAUCA
# B13: chr1:235505951:235505952:+_ENSG00000152904_ENST00000391855|hu_hu|motif|central (ssRNA)
# RNA: GGGAGUUCUACAGUCCGACGAUCUUUAUAGGCUUUAGCUUCAAGCUCUUUAAGGGUAUUACGAGUGUAUUCAAAAGAACCGGCAUCCUCAAGAUAAUGUACACAGUAUUUUUUUAUAUCUAUGUUUUCUGUUCUCUGGCGCAACAACAGAGGAUUGAGCAUCA
# B14: chr4:136892031:136892032:-_ENSMUSG00000006699_ENSMUST00000030417|mus_mus|FALSE|FALSE (ssRNA)
# RNA: GGGAGUUCUACAGUCCGACGAUCCACACUUAAUUGUCUGCAUUUCGGAAACAGUUUUGUAUCCACUUUUAAUAUUUCAAAUUAGAUCUUGUCCUCAGCUUCUCCGCCGGGGCGUUGGCAGCACUGCGCGGGGCCUCCUCGGCUCAACAGAGGAUUGAGCAUCA
# B15: chr9:95013113:95013114:-_ENSG00000196305_ENST00000443024|hu_hu|hu_hu_hu_mus_False|1_8 (ssRNA)
# RNA: GGGAGUUCUACAGUCCGACGAUCCUCAGUCAGAAAGGGCGUGUAAGGGGCCAUCAGUCUGCACAGAGAAAGCAGGACACUGAACAGUGUCUCCAGAGCCAUGACACAGUCUUCCACCCCACUCUCACCCUUUAAUCUUCUGCGCAACAGAGGAUUGAGCAUCA
# B16: chr12:86311719:86311720:-_ENSMUSG00000042350_ENSMUST00000043169|mus_mus|motif|central (ssRNA)
# RNA: GGGAGUUCUACAGUCCGACGAUCGGCUGCGGCGUGAAGAAAAACGUUACCCGAACGGGGGCUGCAACGUGGCCAAGUCCGGGUUCUGGGGUCCGAGGAAGCAGCGGCCUCAUCCAGCACAAAUCCUACCCUCCACCCGCCCCCCAACAGAGGAUUGAGCAUCA
# B17: chr7:56126341:56126342:+_ENSG00000146731_ENST00000540286|hu_mus|hu_hu_hu_mus_True|18_88 (ssRNA)
# RNA: GGGAGUUCUACAGUCCGACGAUCCAUGUUUCUCCUCUUGGCUCUGCGCAGAGCAACGAUCCCUUCUUUCGCAAGGGCAUCUAAGGAAAAGGGGUCAAUCCCCUUUUGAUUAAUAACAACAAAUCCUUUAUCUGAGUCACCACACAACAGAGGAUUGAGCAUCA
# B18: chr10:7364202:7364203:-_ENSMUSG00000019795_ENSMUST00000163085|mus_hu|FALSE|FALSE (ssRNA)
# RNA: GGGAGUUCUACAGUCCGACGAUCUCCAGAUCCUACAUCAAGAGCUUUAGCUCCUUCAUGCAACUGAUCAAAUAGAAGUUCUAGCGCAUAUGCAUGCAUGUGUGGAGCACUGAUUGUUGCUUGGAAACCUAUUGAUUGUGGAGACAACAGAGGAUUGAGCAUCA
# B19: chr2:148701126:148701127:-_ENSMUSG00000027447_ENSMUST00000028938|mus_mus|FALSE|FALSE (ssRNA)
# RNA: GGGAGUUCUACAGUCCGACGAUCCUAGGACAAAGGGAUAAAGCUCCAACAAGACUCUGAGUUGGUGCAGAACAGACGCUGCUACUCCGUGCGACUUUUACCCAAAUGCGAGCGUUAGGGACCCGCCCGCCUCUCCUGGCUCCUCAACAGAGGAUUGAGCAUCA
# B20: chr22:38894135:38894136:-_ENSG00000100201_ENST00000396821|hu_hu|FALSE|FALSE (ssRNA)
# RNA: GGGAGUUCUACAGUCCGACGAUCAUAGUCAUCGGCCACCUGCUGUACUUGCUGGGCAAGCUCUCUGGUAGGAGCCAGAACUAGACAGAUUGGGCCAUCUCCCCUUUCCAAGUAUGGCUGGUGGUUAAUAUGAACAAUUGCAGGCAACAGAGGAUUGAGCAUCA
# B21: chr2:47387792:47387793:-_ENSG00000143933_ENST00000272298|hu_hu|hu_hu_hu_mus_True|1_38 (ssRNA)
# RNA: GGGAGUUCUACAGUCCGACGAUCUAAGGACAAUGACAGUAAGAUAAGGGAAGAAAACAUGGAGGAAUGAAGUCCUAAUUACUAUACAUGCAUAUUUUUUUGACAGUGGGGGGGGGAACCUUUUACAGAUAAGUUACACAAAGACAACAGAGGAUUGAGCAUCA
# B22: chr8:117866615:117866616:-_ENSG00000164754_ENST00000297338|hu_hu|motif|central (ssRNA)
# RNA: GGGAGUUCUACAGUCCGACGAUCCAAUUUCUUGGUGGGCGGUGCCAGAUCCAAAGUAGUAACAAUAUCUGAAUAAUCACGGAGUUGGGCUCUAAUUGUCUUGCUAUCCAACUCUUUGACACUGUCAACAAUUAGCUUCCUCUUCAACAGAGGAUUGAGCAUCA
# Biological target: T1, UNK ZnF1-3 (human, UniProt Q9C0B0 31-174)
# T1 sequence: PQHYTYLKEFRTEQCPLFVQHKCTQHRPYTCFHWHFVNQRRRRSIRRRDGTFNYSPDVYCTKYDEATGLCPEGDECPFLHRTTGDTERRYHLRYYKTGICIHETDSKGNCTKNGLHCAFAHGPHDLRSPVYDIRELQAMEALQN
# Test: nsRBNS (natural sequence RNA bind-n-seq); RBNS binding buffer (assumed for nsRBNS): 25 mM Tris pH 7.5, 150 mM KCl, 3 mM MgCl2, 0.01% Triton X-100, 500 ug/ml BSA, 20 U/ml SUPERase-In, 4 C; UNK is unkempt and MSI1 is Musashi-1; names of the RNAs are library labels; protein concentration not given here; high values mean tight binding
row,Binder,binding signal [enrichment R]
1,B1,0.831
2,B2,0.4
3,B3,0.935
4,B4,1.83
5,B5,0.828
6,B6,1.22
7,B7,1.96
8,B8,1.67
9,B9,2.86
10,B10,0.5
11,B11,1.79
12,B12,0.686
13,B13,0.765
14,B14,0.567
15,B15,0.985
16,B16,1.44
17,B17,1.19
18,B18,1.05
19,B19,0.997
20,B20,0.527
21,B21,2.05
22,B22,0.978
